In the supplement of paper PMC4166925:
± gives the standard deviation of the averaged measurements. Whole data set: some 33,000 sequences, median “E-score (dimensionless, -0.5 to 0.5)” near -0.046, cut for the highest 2% near 0.36. Some of the results follow.

These sequences were tested on T1, SpTbr T-box DNA-binding domain (GST fusion) (assay: PBM E-score of 8-mer (E-score (dimensionless, -0.5 to 0.5)); Tbr is Tbrain of the sea star Patiria miniata (Pm) or the sea urchin Strongylocentrotus purpuratus (Sp); higher = stronger binding preference; most listed sequences are background and not binding sites). Conditions: the construct has about 5 more residues each side.
T1 sequence: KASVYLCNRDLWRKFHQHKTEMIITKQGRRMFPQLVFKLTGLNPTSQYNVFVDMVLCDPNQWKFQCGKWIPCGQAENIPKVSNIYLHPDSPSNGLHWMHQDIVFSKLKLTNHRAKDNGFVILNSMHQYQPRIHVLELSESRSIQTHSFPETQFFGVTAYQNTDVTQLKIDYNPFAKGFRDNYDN
Procedure, shortened: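 Primer extension turned Universal Agilent oligonucleotide arrays double-stranded. They were incubated with 200 nM protein in PBS (pH 7.5); the protein was a GST-fused Tbr T-box DNA-binding domain expressed in BL21 E. coli at 20 °C and purified on glutathione. Every ungapped 8-mer was scored from the scanned, quantified probe intensities, and the Universal PBM Analysis Suite gave each an enrichment E-score averaged over duplicate arrays.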
CGTTGGCC was tested, and the “PBM E-score of 8-mer” value was -0.214 ± 0.079. For ACCCTGTA, the “PBM E-score of 8-mer” value was -0.0127 ± 0.058. CCCACGAC was tested, and the “PBM E-score of 8-mer” value was 0.135 ± 0.013. With TCGGGGAA the “PBM E-score of 8-mer” value was -0.221 ± 0.021. In the case of CGGGTTAG, the “PBM E-score of 8-mer” value is reported as -0.144 ± 0.074. With AATTGAGC the “PBM E-score of 8-mer” value was -0.197 ± 0.0054. With CCAACTCC the “PBM E-score of 8-mer” value was -0.0214 ± 0.0039. With GAGTGAGC the “PBM E-score of 8-mer” value was -0.0323 ± 0.13. For GGGAACAA, the “PBM E-score of 8-mer” value was -0.124 ± 0.021. For CGAGGGAA, the “PBM E-score of 8-mer” value was -0.123 ± 0.058. CTATTGGC was tested, and the “PBM E-score of 8-mer” value was 0.133 ± 0.055. AGTCCGCG was tested, and the “PBM E-score of 8-mer” value was 0.174 ± 0.034. With AAGGTCAG the “PBM E-score of 8-mer” value was -0.148 ± 0.0046. For AAGCACTC, the “PBM E-score of 8-mer” value was -0.0686 ± 0.056. GCGGAGCA was tested, and the “PBM E-score of 8-mer” value was -0.00457 ± 0.049. AATTTCAC was tested, and the “PBM E-score of 8-mer” value was 0.269 ± 0.02. For ACTCGTCT, the “PBM E-score of 8-mer” value was -0.105 ± 0.051. For ACATCTTA, the “PBM E-score of 8-mer” value was 0.00684 ± 0.033. For CGCATAGC, the “PBM E-score of 8-mer” value was 0.0118 ± 0.061. In the case of ACGAAGAT, the “PBM E-score of 8-mer” value is reported as -0.0932 ± 0.022. For ACACTGTC, the “PBM E-score of 8-mer” value was 0.29875 ± 0.00028. For GAGAATTA, the “PBM E-score of 8-mer” value was -0.00577 ± 0.11. For ACCTCCGG, the “PBM E-score of 8-mer” value was -0.171 ± 0.027. With AGAATCCA the “PBM E-score of 8-mer” value was -0.0617 ± 0.035. With AAGATATT the “PBM E-score of 8-mer” value was -0.111 ± 0.053. In the case of GTATGTTA, the “PBM E-score of 8-mer” value is reported as 0.133 ± 0.013. With GATTAGTA the “PBM E-score of 8-mer” value was -0.0363 ± 0.088. For CGACTCGC, the “PBM E-score of 8-mer” value was 0.173 ± 0.053. For GATTAATA, the “PBM E-score of 8-mer” value was 0.028 ± 0.038. GGGGAATA was tested, and the “PBM E-score of 8-mer” value was -0.207 ± 0.0041. TAAAACAA was tested, and the “PBM E-score of 8-mer” value was -0.112 ± 0.0035. With ATAACGAC the “PBM E-score of 8-mer” value was 0.169 ± 0.021. In the case of ACCAGACC, the “PBM E-score of 8-mer” value is reported as -0.126 ± 0.014. For CCAACGAC, the “PBM E-score of 8-mer” value was 0.0917 ± 0.022. For GTCTCAGA, the “PBM E-score of 8-mer” value was -0.0914 ± 0.014. With CGATAAAC the “PBM E-score of 8-mer” value was 0.138 ± 0.063. For GTACCGTA, the “PBM E-score of 8-mer” value was -0.33 ± 0.0053. GATTGGGC was tested, and the “PBM E-score of 8-mer” value was -0.174 ± 0.042. For GGAAAACA, the “PBM E-score of 8-mer” value was -0.149 ± 0.051. CTCTATCA was tested, and the “PBM E-score of 8-mer” value was 0.0624 ± 0.021. In the case of CAAACGTA, the “PBM E-score of 8-mer” value is reported as -0.157 ± 0.026. ACTGACCT was tested, and the “PBM E-score of 8-mer” value was -0.178 ± 0.011. AGGCTACC was tested, and the “PBM E-score of 8-mer” value was -0.326 ± 0.017. ATGTTTTG was tested, and the “PBM E-score of 8-mer” value was 0.00867 ± 0.052. For CAGTACGG, the “PBM E-score of 8-mer” value was -0.315 ± 0.0061. In the case of GCGTCAGC, the “PBM E-score of 8-mer” value is reported as 0.225 ± 0.024. With GCTTGCCC the “PBM E-score of 8-mer” value was -0.201 ± 0.049. With CGCTATAC the “PBM E-score of 8-mer” value was 0.121 ± 0.022. AAATTGCA was tested, and the “PBM E-score of 8-mer” value was -0.0681 ± 0.087. For ATTGAGTC, the “PBM E-score of 8-mer” value was -0.00524 ± 0.047. With GTCTACGA the “PBM E-score of 8-mer” value was -0.0784 ± 0.053. AGTTGTCC was tested, and the “PBM E-score of 8-mer” value was -0.136 ± 0.07. CGGAACGA was tested, and the “PBM E-score of 8-mer” value was -0.177 ± 0.022. For GTCTAACA, the “PBM E-score of 8-mer” value was 0.138 ± 0.0084. In the case of AGGACAAA, the “PBM E-score of 8-mer” value is reported as 0.154 ± 0.076. With GCGCGATA the “PBM E-score of 8-mer” value was 0.288 ± 0.014. In the case of TGCAGAAA, the “PBM E-score of 8-mer” value is reported as -0.264 ± 0.026. For AAACCGCA, the “PBM E-score of 8-mer” value was 0.0197 ± 0.063. In the case of GACCCTGA, the “PBM E-score of 8-mer” value is reported as 0.0778 ± 0.024. In the case of CATCTATC, the “PBM E-score of 8-mer” value is reported as -0.159 ± 0.038. In the case of TCGGGACA, the “PBM E-score of 8-mer” value is reported as -0.0471 ± 0.01. AGTAGGTG was tested, and the “PBM E-score of 8-mer” value was 0.3972 ± 0.0024. CACGTTCA was tested, and the “PBM E-score of 8-mer” value was 0.14 ± 0.0047. For CCCGGTTC, the “PBM E-score of 8-mer” value was -0.0898 ± 0.054. For AAACCCGT, the “PBM E-score of 8-mer” value was 0.111 ± 0.068. For CCGGCTTA, the “PBM E-score of 8-mer” value was -0.222 ± 0.0053. With GATTCAGA the “PBM E-score of 8-mer” value was -0.233 ± 0.061. With CCCTACAG the “PBM E-score of 8-mer” value was -0.178 ± 0.018. For ATCTTCAC, the “PBM E-score of 8-mer” value was 0.267 ± 0.02. In the case of ACGCTTCA, the “PBM E-score of 8-mer” value is reported as 0.059 ± 0.061. ACATATGT was tested, and the “PBM E-score of 8-mer” value was 0.178 ± 0.093. AGCTCCCC was tested, and the “PBM E-score of 8-mer” value was -0.247 ± 0.059. With CGATCTGA the “PBM E-score of 8-mer” value was 0.0733 ± 0.0072. In the case of ACAGCGGC, the “PBM E-score of 8-mer” value is reported as -0.0426 ± 0.039. With ACGGTGTC the “PBM E-score of 8-mer” value was 0.271 ± 0.051. GACCGCTC was tested, and the “PBM E-score of 8-mer” value was -0.228 ± 0.018. With CTCTCCAG the “PBM E-score of 8-mer” value was -0.12 ± 0.028. CTAGCTCA was tested, and the “PBM E-score of 8-mer” value was -0.133 ± 0.032. For CATGGATC, the “PBM E-score of 8-mer” value was -0.148 ± 0.015. AGTATGCC was tested, and the “PBM E-score of 8-mer” value was -0.192 ± 0.0078. AGGAGCAA was tested, and the “PBM E-score of 8-mer” value was -0.0744 ± 0.025. For CTGGTCGA, the “PBM E-score of 8-mer” value was -0.0516 ± 0.067. With GATAGTTA the “PBM E-score of 8-mer” value was 0.0786 ± 0.03. AATTCGAA was tested, and the “PBM E-score of 8-mer” value was -0.258 ± 0.054. In the case of ACGGTTTC, the “PBM E-score of 8-mer” value is reported as 0.0626 ± 0.061. ACGTCTCA was tested, and the “PBM E-score of 8-mer” value was -0.0871 ± 0.0036.
